In assay [1] the test system is Human Gal3 peptides. Put plainly: Gal3 peptide binding ELISA (Example 8). Conditions: antibody 5 μg/mL. The procedure:
(§1) Gal3 peptide binding activity of additional exemplary anti-Gal3 antibodies was assessed with the same peptides as described in FIG. 18 (SEQ ID NOs: 3-26). Human Gal3 peptides (LifeTein, custom order) and human Gal3 proteins (R&D Systems, 8259-GA; TrueBinding, QCB200349) were diluted in PBS (Corning, 21-030-CM) to concentrations of at least 100 μg/mL (peptides) or 1 μg/mL (proteins), and added to the wells of several 96-well ELISA plates (Thermo Fisher, 44-2404-21). After incubating the plates at 4° C. overnight, the plates were washed three times with PBST (PBS with 0.05% Tween 20 [VWR, 0777]). The plates were then blocked for an hour with 2% BSA (EMD Millipore, 126609) in PBST at room temperature with gentle rocking. Thereafter, the 2% BSA in PBST was discarded and Gal3-binding antibodies (reformatted hIgG4 [S228P]) were diluted in 2% BSA in PBST to concentrations of 5 μg/mL and added to the wells. The plates were incubated for an hour at room temperature with gentle rocking and then washed three times with PBST. Afterwards, Peroxidase AffiniPure F(ab′)2 Fragment Goat Anti-Human IgG (H+L) polyclonal antibody (Jackson ImmunoResearch, 109-036-003), was diluted in 2% BSA in PBST (1:4000) and added to the wells. The plates were incubated for 1 hour at room temperature with gentle rocking and then washed three times with PBST. TMB substrate (Thermo Scientific, 34029) was then added to each well. The reaction was stopped with 1M HCl (JT Baker, 5620-02) and read using a plate reader (Molecular Devices) at absorbance of 450 nm.

The next assay addresses T1, human Gal3 (Homo sapiens, UniProt P17931).
T1 construct: 6xHis (linker-spaced) (C); purchased AcroBio (Acro Biosystems) GA3-H5129
Description: Epitope binning, sandwich format, SPR Carterra LSA (Example 8). The assay is classed as binding. As for the experimental part:
The epitope binning assay was done in a sandwich format on the high-throughput SPR-based Carterra LSA unit (CarterraBio, Salt Lake City, Utah). First, the purified antibodies were diluted to 10 μg/ml concentration in 10 mM NaOAc (pH 5.0) and then were covalently coupled via amine group to HC200M chip activated by EDC and S-NHS to immobilize antibodies to different positions of a 384-spot array. One hundred thirty-eight binning cycles were run on the array of immobilized antibodies. In each cycle, first, human Gal3 (AcroBio GA3-H5129) was injected over the entire array to bind to different antibodies (primary antibody), followed by one antibody (secondary antibody) selected among the panel of 150 anti-GAL3 antibodies tested. At the end of each cycle, the array was regenerated by 10 mM Glycine (pH 2.0) to remove bound antigen and secondary antibody from the array. The data analysis was done using the Epitope software by CarterraBio.

Assay [2] concerns the target T2, Human Gal3 peptides (Homo sapiens, UniProt P17931).
T2 construct: purchased LifeTein custom order
Put plainly: Gal3 peptide binding ELISA (Example 8). The conditions noted are these: antibody 5 μg/mL. As for the experimental part:
as §1

T1 sequence (P17931 whole entry): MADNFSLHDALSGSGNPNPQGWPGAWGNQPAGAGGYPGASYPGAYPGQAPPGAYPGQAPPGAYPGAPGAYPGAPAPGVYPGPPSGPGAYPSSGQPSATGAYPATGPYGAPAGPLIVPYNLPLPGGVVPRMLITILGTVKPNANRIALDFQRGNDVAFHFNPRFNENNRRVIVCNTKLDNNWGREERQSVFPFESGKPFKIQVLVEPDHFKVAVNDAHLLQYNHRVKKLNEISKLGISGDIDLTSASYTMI

B1: 846.2B11: anti-Gal3 antibody (antibody)
heavy: QVQLQQSGPELVRPGALVKISCKASGYTFTSYDINWVKQRPGQGLEWIGWIYPGDGSTKYNEKFKGKATLTADKSSSTAYMQLSSLTSENSAVYFCAREAASNAMDYWGQGTSVTVSSASTKGPSVFPLAPCSRSTSESTAALGCLVKDYFPEPVTVSWNSGALTSGVHTFPAVLQSSGLYSLSSVVTVPSSSLGTKTYTCNVDHKPSNTKVDKRV[in this place human IgG4 Fc with S228P (EU numbers)]
light: DIVLTQSPASLGVSLGQRATISCRASKSVSTSGYSYMHWYQQKPGQPPKLLIYLASILESGVPARFSGSGSGTDFTLNIHPVEEEDAAIYYCQHSRELPLTFGAGTKLELKRTVAAPSVFIFPPSDEQLKSGTASVVCLLNNFYPREAKVQWKVDNALQSGNSQESVTEQDSKDSTYSLSSTLTLSKADYEKHKVYACEVTHQGLSSPVTKSFNRGEC
modifications: 846.2B11 heavy chain peptide sequence; 846.2B11 light chain peptide sequence
notes: anti-Gal3 antibody
Regarding B1, the “binding to any of the tested Gal3 peptides” value (“binding to any” below) with Human Gal3 peptides [1] is given as “not found to bind”.

B2: F847C.21H6: anti-Gal3 antibody, VH SEQ ID NO: 367, VL SEQ ID NO: 440 (antibody, V domains shown)
VH: QIQLVQSGPELKKPGETVKISCKASGYTFTIFGMNWVKQAPGKGLKWMGWVNTYTGEPTYADDFKGRFAFSLETSASTAYLQINNLKNEDTATYFCARGWFAYWGQGTLVTVSA
VL: DVVMTQTPLTLSVTIGQPASISCKSSRSLLDSDGKTYLNWLLQRPGQSPKRLIYLVSKLDSGVPDRFTGSGSGTDFTLKISRVEAEDLGVYYCWQGTHFPQTFGGGTKLEIN
modifications: VH-71 Peptide Sequence; VL-67 Peptide Sequence
In the case of B2, the “epitope bin (mutual competitive binding for Gal3)” value with human Gal3 was 1. For the same molecule, in the assay with Human Gal3 peptides [2], the “binding to Gal3 peptide 5 (SEQ ID NO: 7)” value is on record as “bound” and the “binding to Gal3 peptide 6 (SEQ ID NO: 8)” value was “bound”.

B3: 847.10C9: anti-Gal3 antibody (antibody, V domains shown)
VH: EVQLQQSGAELVRPGTSVKVSCKASEYAFNNYMMEWVKQRPGQGLEWIGVINPGSGATNYNENFKDKATLTADKSSTTAYMQLSSLTSDDSAVYFCTYNDLGYWGQGTLVTVSA
VL: DVVMTQTPLTLSVTIGQPASISCKSSQSLLYSDGKTYLNWLLQRPGQSPKRLIYLVSQLDSGVPDRFTGSGSGTDFTLKISRVEADDLGVYCCVQGTHLPTFGGGTKLEIK
In the case of B3, in the assay with human Gal3, the “epitope bin (mutual competitive binding for Gal3)” value is reported as “CRD”. Further, in the assay with Human Gal3 peptides [2], the “binding to Gal3 peptide 2 (SEQ ID NO: 4)” value is listed as “bound”, the “binding to Gal3 peptide 3 (SEQ ID NO: 5)” value is on record as “bound”, the “binding to Gal3 peptide 9 (SEQ ID NO: 11)” value was “bound” and the “binding to Gal3 peptide 10 (SEQ ID NO: 12)” value is “bound”.

B4: 847.15H11: anti-Gal3 antibody (antibody, V domains shown)
VH: EVQLQQSGAEVVKPGAPVKLSCKASGYTFNNYWLNWVKQRPGRGLEWIGRIDPSDSETHYNQKFKDKATLTVDMSSSTAYIQLSSLTSEDSAVYYCARGDYYYGTRGPMDYWGQGTSVTVSS
VL: DIVLTQSPASLAVSLGQRATISCRASESLDNSGISFMNWFQQRPGQPPKLLIYAASNLESGVPARFSGSGSGTDFSLNIHPMEEDDAAMYFCQHSKEVPWTFGGGTKLEIK
As to B4, the “binding to any” value in the assay on Human Gal3 peptides [1] is listed as “not found to bind”.

B5: 849.4B2: anti-Gal3 antibody (antibody, V domains shown)
VH: DGKLQESGPGLVKPSQSLSLTCSVTGYSITSGYYWNWIRQFPGNKLEWMGHISYDGRNNYNPSLKNRISITRDTSKNQFFLKLNSVTTEDTATYYCAGYDFLWYFDVWGTGTTVTVSS
VL: DVGMTQTPLILSVTIGQPASISCKSSQSLLYINGKTYLNWLLQRPGQSPKRLIYLVSKLDSGVPNRFSGSGSGTDFTLKISRVEAEDLGVYYCLQSTHFPQTFGGGTKLEIK
Consider B5, for which, in the assay with human Gal3, the “binding to hGAL3 when immobilized on HC200M chip” value is given as “not bind”. The “binding to any” value in the assay on Human Gal3 peptides [1] is “not found to bind”.
